Test results from PubChem BioAssay (Tox21).
“And” between values parts separate entries of the source, which are not always exact repeats. Equal entries are not always repeated. The inconclusive results got no clear call from the source; some entries with a clear call stand among them for comparison. A potency beside an inconclusive call is a rough fit, not a confirmed value. Some compounds were tested as several samples or in several runs, with calls that do not always agree. The source made the active and inactive calls. Calls follow the shape of the dose curve; as a rule, active = well fitted curve in the direction sought with a large enough effect in the repeat runs; inconclusive = weak or mixed curves; inactive = no such curve, though single readings can be large; an effect the other way counts as inactive or inconclusive.

assay: qHTS assay to identify small molecule agonists of the RXR signaling pathway - cell viability counter screen (AID 1159529); details: RXR-alpha-bla HEK293T viability, CellTiter-Glo, 16 h; series mostly up to 76.8 µM; activity change, negative = cytotoxicity: at the top concentration; also: nearly all actives have a fitted effect of over 50% in size;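 as to activity change, negative = cytotoxicity: HEK 293T cells carrying an RXR-alpha UAS beta-lactamase reporter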
In short: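 Tox21 10K compounds were tested for cytotoxicity against GeneBLAzer RXR-alpha HEK 293T cells grown in 2% charcoal-stripped FBS. Exposure lasted 16 hr at 37 C, 5% CO2; viability read by CellTiter-Glo luminescence.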
% is scaled to controls: 0 for no effect and ±100 for the full control effect; potency is read from the fitted curve at half-maximal effect; tags tell the direction and shape of the fitted curve.

SMILES | Potency
c1ccc(-c2cccc(-c3ccccc3)c2)cc1 | inconclusive: 22.1 µM [cytotoxic, partial curve]
CCOP(=S)(OCC)Oc1cc(C)nc(N(CC)CC)n1 | inconclusive: 17.4 µM [cytotoxic, partial curve]
Nc1ccc(-c2ccc(N)cc2)cc1 | inconclusive: 6.12 µM [cytotoxic, partial curve, poor fit]
CCC(=O)C(CC(C)N(C)C)(c1ccccc1)c1ccccc1 (configuration not stated) | active: 43.8 µM and inconclusive: 24.4 µM [cytotoxic, partial curve] and inconclusive: 26.4 µM [cytotoxic, partial curve]
O=[N+]([O-])c1c2ccccc2cc2ccccc12 | inconclusive: 17.2 µM [cytotoxic, full curve]
OCC1CO1 (configuration not stated) | inactive

assay: qHTS assay to identify small molecule antagonists of the retinoid acid receptor (RAR) signaling pathway - cell viability counter screen (AID 1159551); details: C3RL4 cells viability, ATP luminescence (CellTiter-Glo), 6 h; series mostly up to 92.4 µM; activity change, negative = cytotoxicity: at the top concentration; also: nearly all actives have a fitted effect of over 35% in size
In short: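 Viability of C3RL4 cells is quantified from ATP by luminescence after 6 h treatment at 37 C with compounds and 1 uM retinol.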

SMILES | activity change, negative = cytotoxicity | Potency
CON(C)C(=O)Nc1ccc(Cl)cc1 | inactive: 0.0712% | –
CC(=O)C=C(C)C | – | inactive
NC(=S)Nc1ccccc1 | – | inconclusive: 19.6 µM [cytotoxic, full curve]
Cc1ccccc1N | – | inactive
O=P1(NCCCl)OCCCN1CCCl (configuration not stated) | – | inactive
CCC(COC(=O)c1cc(OC)c(OC)c(OC)c1)(c1ccccc1)N(C)C (configuration not stated) | – | inconclusive: 33.5 µM [cytotoxic, single point]
CC(C)N(C(=O)SCC(Cl)=C(Cl)Cl)C(C)C | – | inconclusive: 67.7 µM [cytotoxic, partial curve, poor fit]
C[N+](C)(C)CCOC(=O)C(O)(c1ccccc1)c1ccccc1 | inactive: 0.0012% [at 42.5 µM] | –

assay: qHTS assay to identify small molecule antagonists of the retinoic acid receptor (RAR) signaling pathway (AID 1159552; also: nearly all actives have a fitted effect of over 50% in size); details: C3RL4 RARE luciferase reporter, retinol-stimulated, 6 h; series mostly up to 92.4 µM; activity, negative = inhibition: at the top concentration
In short: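 Overnight-plated C3RL4 reporter cells get compound, then retinol to 1 uM final; plates sit 6 hr at 37 C, 5% CO2. A luciferase reagent is added and light output recorded after 30 min at room temperature.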

SMILES | Potency | activity, negative = inhibition
CN(C)CCc1c[nH]c2cccc(O)c12 | inconclusive: 135 µM [inhibitor, partial curve, poor fit] | –
CC(=O)C=C(C)C | inconclusive: 8.06 µM [inhibitor, partial curve, poor fit] and inconclusive: 48.6 µM [inhibitor, single point] | –
NC(=S)Nc1ccccc1 | inactive | –
CC1C=[C-]C=C1.[C-]#[O+].[C-]#[O+].[C-]#[O+].[Mn] | inconclusive: 15.4 µM [inhibitor, partial curve, poor fit] | –
CC(CC(C#N)(c1ccccc1)c1ccccc1)N(C)C (configuration not stated) | inconclusive: 24.2 µM [inhibitor, partial curve] | –
COc1c(C(C)(C)C)cc([N+](=O)[O-])c(C)c1[N+](=O)[O-] | – | inactive: 3.6%

assay: qHTS assay to identify small molecule agonists of the retinoic acid receptor (RAR) signaling pathway (AID 1159553); details: C3RL4 RARE luciferase reporter, agonist, 6 h; activation: at 73.3 µM (top of the series) unless noted
In short: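 Compounds dissolved in DMSO were pinned onto C3RL4 cells seeded the previous day, and plates were held 6 hr at 37 C. RARE-driven luciferase output was then read by luminescence.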

SMILES | activation | Potency
CON(C)C(=O)Nc1ccc(Cl)cc1 | inconclusive: 7.32% [phenotype inactive] | –
CN(C)CCc1c[nH]c2cccc(O)c12 | – | inconclusive: 76.2 µM [inhibitor, single point]
CCCCCCCCCBr | inactive: -1.6% [at 94.8 µM] | –
Cc1cccc(N)c1 | – | inconclusive: 21.8 µM [activator, partial curve]
COc1cccc(C=O)c1 | inactive: -0.371% | –
COC(=O)Nc1nc2ccccc2[nH]1 | – | inconclusive: 6.11 µM [activator, full curve, poor fit] and inactive
Nc1cccnc1 | – | inactive
CCC(COC(=O)c1cc(OC)c(OC)c(OC)c1)(c1ccccc1)N(C)C (configuration not stated) | – | inconclusive: 33.5 µM [inhibitor, partial curve, poor fit]
COc1ccc(O)c(C(C)(C)C)c1 | – | inconclusive: 27.4 µM [inhibitor, partial curve, poor fit]
c1ccc(-c2cccc(-c3ccccc3)c2)cc1 | – | active: 6.93 µM and active: 4.86 µM
CCNc1nc(NC(C)(C)C)nc(SC)n1 | – | inconclusive: 77 µM [inhibitor, single point]
Nc1ccc(-c2ccc(N)cc2)cc1 | – | inconclusive: 10.7 µM [activator, full curve] and inconclusive: 10.9 µM [activator, partial curve]
Nc1ccc(N=Nc2ccccc2)cc1 | – | active: 0.386 µM
CC(CC(C#N)(c1ccccc1)c1ccccc1)N(C)C (configuration not stated) | – | inconclusive: 48.3 µM [inhibitor, partial curve, poor fit]
CCC(=O)C(CC(C)N(C)C)(c1ccccc1)c1ccccc1 (configuration not stated) | – | inconclusive: 54.7 µM [inhibitor, partial curve]
COP(=S)(OC)Oc1ccc(Sc2ccc(OP(=S)(OC)OC)cc2)cc1 | – | active: 61.1 µM
O=[N+]([O-])c1c2ccccc2cc2ccccc12 | – | active: 19.1 µM
